Sequences and labels used below:
B1: Xrs2 as Gal4 fusion for the yeast two-hybrid assay (protein, UniProt P33301 1-854)
chain: MWVVRYQNTLEDGSISFISCCLQAFKTYSIGRSSKNPLIIKNDKSISRQHITFKWEINNSSDLKHSSLCLVNKGKLTSLNKKFMKVGETFTINASDVLKSTIIELGTTPIRIEFEWINEVWNIPPHLTQFRTMLSEYGISTEISINDIPANLMISDYPKSEDNSIRELYALVSTIPMKKSRFLMELCNTLLPTSKTNLKFDEMWNDMISNPEYNVFDFDPNILLSKFMRLNNIRVLTTIKSEPRLSSLLRTFNINLFAFDNIDSLYKYVDSLEASTEYLILTTTDKKENGKILCTIKTMLTSIIDGTLSAVINMKGASSRTLDNGKFDQISEGMSTILKTSRAPEVEASPVVSKKRKLNRRRVLPLDSLDFFAGGLSTKTLSENRSLTDAKRLNCGAESKTVISSPNIAEADEKHAPFLQNALKPTEDIGKKSGHSSPGAIIVSSPNLGTVNTSEDSLDKSLQSHKLPQPSLPEVAGIGSQTISSNSADYETAAVNSMDDAEVTKNFRVNHHQNIEQPSKNIRKLSNYSREISSPLQENCKSPVKELSIKEKSGTPHAFVEAIQETKNREVKRVKSTIVELKDEELSEEAINQLKNLAIVEPSNNLLRKSFDSEGNKTSRTTEKWENSLMEPEWHKRKNFKTFVKVRPKSKAHKEEGKNNTQSSDFIRNAAFLITRNYVPLKKYSKKDTTTKWGTEENEDMFALTEMERFGSNTFMSDNINSNTIQKRSQALNRFTNEDSSNEGEEDSFSFSRCSGTAASVQPLKNKIFITDEDDLGDIDDKSDRLNHRENNRNLFVVKEMNLRPNLSEECSKQSRHSRSATSRSRGSFGASNNGDGDDDDDDGPKFTFKRRKG
B2: Rad50 as Gal4 fusion for the yeast two-hybrid assay (enzyme, UniProt P12753 1-1312)
chain: MSAIYKLSIQGIRSFDSNDRETIEFGKPLTLIVGMNGSGKTTIIECLKYATTGDLPPNSKGGVFIHDPKITGEKDIRAQVKLAFTSANGLNMIVTRNIQLLMKKTTTTFKTLEGQLVAINNSGDRSTLSTRSLELDAQVPLYLGVPKAILEYVIFCHQEDSLWPLSEPSNLKKKFDEIFQAMKFTKALDNLKSIKKDMSVDIKLLKQSVEHLKLDKDRSKAMKLNIHQLQTKIDQYNEEVSEIESQLNEITEKSDKLFKSNQDFQKILSKVENLKNTKLSISDQVKRLSNSIDILDLSKPDLQNLLANFSKVLMDKNNQLRDLETDISSLKDRQSSLQSLSNSLIRRQGELEAGKETYEKNRNHLSSLKEAFQHKFQGLSNIENSDMAQVNHEMSQFKAFISQDLTDTIDQFAKDIQLKETNLSDLIKSITVDSQNLEYNKKDRSKLIHDSEELAEKLKSFKSLSTQDSLNHELENLKTYKEKLQSWESENIIPKLNQKIEEKNNEMIILENQIEKFQDRIMKTNQQADLYAKLGLIKKSINTKLDELQKITEKLQNDSRIRQVFPLTQEFQRADLEMDFQKLFINMQKNIAINNKKMHELDRRYTNALYNLNTIEKDLQDNQKSKEKVIQLLSENLPEDCTIDEYNDVLEETELSYKTALENLKMHQTTLEFNRKALEIAERDSCCYLCSRKFENESFKSKLLQELKTKTDANFEKTLKDTVQNEKEYLHSLRLLEKHIITLNSINEKIDNSQKCLEKAKEETKTSKSKLDELEVDSTKLKDEKELAESEIRPLIEKFTYLEKELKDLENSSKTISEELSIYNTSEDGIQTVDELRDQQRKMNDSLRELRKTISDLQMEKDEKVRENSRMINLIKEKELTVSEIESSLTQKQNIDDSIRSKRENINDIDSRVKELEARIISLKNKKDEAQSVLDKVKNERDIQVRNKQKTVADINRLIDRFQTIYNEVVDFEAKGFDELQTTIKELELNKAQMLELKEQLDLKSNEVNEEKRKLADSNNEEKNLKQNLELIELKSQLQHIESEISRLDVQNAEAERDKYQEESLRLRTRFEKLSSENAGKLGEMKQLQNQIDSLTHQLRTDYKDIEKNYHKEWVELQTRSFVTDDIDVYSKALDSAIMKYHGLKMQDINRIIDELWKRTYSGTDIDTIKIRSDEVSSTVKGKSYNYRVVMYKQDVELDMRGRCSAGQKVLASIIIRLALSETFGANCGVIALDEPTTNLDEENIESLAKSLHNIINMRRHQKNFQLIVITHDEKFLGHMNAAAFTDHFFKVKRDDRQKSQIEWVDINRVTY
B3: Xrs2 (in S. cerevisiae cell extracts) (protein, UniProt P33301 1-854)
chain: B1 chain
B4: Rad50-D1126N (enzyme, UniProt P12753 1-1312)
chain: B2 chain with D1126N
B5: Rad50-W1157A (enzyme, UniProt P12753 1-1312)
chain: B2 chain with W1157A
B6: Rad50-D1126A (enzyme, UniProt P12753 1-1312)
chain: B2 chain with D1126A
B7: Rad50-D1126E (enzyme, UniProt P12753 1-1312)
chain: B2 chain with D1126E
B8: Rad50-MRI-3A (Rad50-E1155A D1167A E1243A) (enzyme, UniProt P12753 1-1312)
chain: B2 chain with E1155A, D1167A, E1243A

Residue numbers refer to the chain shown, from its start. Numbers in names are those of the source. These are yes or no findings as the source states them, for the method shown. For some assays here: In cells and extracts the contact can be indirect. Some binding calls cover weakened binding; strength is not graded here. For some assays here: Sequences can lack the tags named with a protein.

In one experiment the target is T1, Mre11 (wild type) as Gal4 fusion for the yeast two-hybrid assay (S. cerevisiae) (UniProt P32829).
T1 sequence: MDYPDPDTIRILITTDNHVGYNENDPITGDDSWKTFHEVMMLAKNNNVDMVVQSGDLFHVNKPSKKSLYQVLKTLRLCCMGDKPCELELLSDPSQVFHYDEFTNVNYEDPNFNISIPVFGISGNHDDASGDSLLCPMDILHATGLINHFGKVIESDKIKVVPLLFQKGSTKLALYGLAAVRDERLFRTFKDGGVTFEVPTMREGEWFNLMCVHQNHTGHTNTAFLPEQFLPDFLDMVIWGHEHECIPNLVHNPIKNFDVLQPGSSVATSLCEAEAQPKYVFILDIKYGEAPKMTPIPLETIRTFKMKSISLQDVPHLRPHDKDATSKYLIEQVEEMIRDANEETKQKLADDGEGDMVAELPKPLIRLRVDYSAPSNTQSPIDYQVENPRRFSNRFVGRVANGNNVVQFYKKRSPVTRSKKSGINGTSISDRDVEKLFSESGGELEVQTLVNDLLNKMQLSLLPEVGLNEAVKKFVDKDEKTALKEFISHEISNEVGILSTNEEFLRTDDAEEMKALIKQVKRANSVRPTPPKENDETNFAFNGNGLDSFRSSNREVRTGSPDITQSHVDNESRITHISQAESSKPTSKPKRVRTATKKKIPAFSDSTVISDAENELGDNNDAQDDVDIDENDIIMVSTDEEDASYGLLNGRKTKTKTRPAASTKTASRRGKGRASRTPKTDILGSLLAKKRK
In words: two-hybrid; Gal4 DNA-binding domain (pGBD; TRP1) and Gal4 activation domain (pGAD; LEU2) fusions; growth in absence of histidine (Do-TLH) and of adenine and histidine (Do-TLAH).
B1: the binding entry is reported as “binds”. Regarding B2, the binding result is “binds”.

The next experiment has as its target T2, Mre11 (wild type, in S. cerevisiae cell extracts) (S. cerevisiae) (UniProt P32829).
T2 sequence: T1 sequence
In words: co-IP; cells grown at 30°C or 37°C; Rad50, Mre11 or Xrs2 immunoprecipitated from cell extracts, western blot with anti-Rad50, anti-Mre11 or anti-Xrs2 antibodies. Background: A western blot detects proteins with antibodies after separation by electrophoresis.
As for B3, the binding entry is on record as “binds”. Consider B4, for which the binding entry was “no binding”. Consider B5, for which the binding result was “no binding”. As for B6, the binding entry is listed as “no binding”. Consider B7, for which the binding entry is listed as “no binding”. In the case of B8, the binding result is “binds”.

Values taken from PMC11661359, “Structure guided functional analysis of the S. cerevisiae Mre11 complex” (Research Square, 2024).
